In article PMC4336329 (PLoS ONE, 2015):
Screen size: about 310,000 compounds; about 2,200 (0.71%) showed an effect of 50% or more. The effect is printed as a negative number. The list shows a part of the results.

Target: human ether-à-go-go-related gene (hERG) potassium channel (human, UniProt Q12809)
Test: primary screen, population patch clamp on CHO cells stably expressing hERG

Chain of human ether-à-go-go-related gene (hERG) potassium channel (Q12809 whole entry, looked up): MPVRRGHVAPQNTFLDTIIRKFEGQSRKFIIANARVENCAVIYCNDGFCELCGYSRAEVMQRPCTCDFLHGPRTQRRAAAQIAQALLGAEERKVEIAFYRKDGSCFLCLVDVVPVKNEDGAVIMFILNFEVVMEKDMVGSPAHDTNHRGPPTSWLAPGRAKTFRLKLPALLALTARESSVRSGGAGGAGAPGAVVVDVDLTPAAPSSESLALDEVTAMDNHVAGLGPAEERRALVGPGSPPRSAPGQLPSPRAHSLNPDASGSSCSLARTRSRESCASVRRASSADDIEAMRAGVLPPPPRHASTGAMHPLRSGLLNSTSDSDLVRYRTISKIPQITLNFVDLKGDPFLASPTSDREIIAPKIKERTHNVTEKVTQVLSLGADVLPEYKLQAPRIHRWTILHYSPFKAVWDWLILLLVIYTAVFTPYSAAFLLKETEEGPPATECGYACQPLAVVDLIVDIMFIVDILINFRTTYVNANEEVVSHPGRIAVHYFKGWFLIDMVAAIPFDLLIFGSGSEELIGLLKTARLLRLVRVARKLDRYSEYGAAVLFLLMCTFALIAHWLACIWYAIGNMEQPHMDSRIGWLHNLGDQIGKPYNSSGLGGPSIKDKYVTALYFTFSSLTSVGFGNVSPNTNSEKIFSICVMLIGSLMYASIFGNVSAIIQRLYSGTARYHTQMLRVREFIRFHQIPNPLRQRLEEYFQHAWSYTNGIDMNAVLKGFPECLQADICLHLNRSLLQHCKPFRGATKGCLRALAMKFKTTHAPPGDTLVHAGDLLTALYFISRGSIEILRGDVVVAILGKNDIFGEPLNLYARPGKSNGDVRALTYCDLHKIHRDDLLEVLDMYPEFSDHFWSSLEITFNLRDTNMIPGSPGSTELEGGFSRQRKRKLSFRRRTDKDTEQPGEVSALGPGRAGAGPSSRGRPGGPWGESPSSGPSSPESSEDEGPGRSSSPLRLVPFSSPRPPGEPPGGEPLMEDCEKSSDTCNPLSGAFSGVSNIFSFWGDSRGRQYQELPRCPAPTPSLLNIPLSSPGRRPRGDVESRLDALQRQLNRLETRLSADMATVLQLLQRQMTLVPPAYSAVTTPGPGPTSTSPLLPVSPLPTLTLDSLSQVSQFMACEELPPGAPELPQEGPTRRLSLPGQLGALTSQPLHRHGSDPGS

Structure (SMILES)	hERG current change (%, negative = inhibition) at 1uM [%]
C(=N\Nc1nc(-c2ccccn2)nc2ccccc12)/c1ccccc1	16.9
CCNS(=O)(=O)c1ccc(CCC(=O)Nc2cc(Cl)ccc2Oc2ccccc2)cc1	4.27
C=CCOc1cccc(C2C(C(=O)c3ccc(C)o3)=C(O)C(=O)N2c2nnc(C)s2)c1 (stereo not shown)	-0.371
COc1ccc(-c2nc3n(c(=O)c2C#N)CCS3)cc1	2.81
COC(=O)C1=C(C)OC(N)=C(C#N)C1c1ccc(OC)c(OC)c1OC (stereo not shown)	4.62
O=C(CSc1nnc(C2CCCCC2)o1)N1CCCCC1	5.09
O=C(O)Cc1sc(-c2ccccc2)nc1-c1cccs1	5.31
Cc1ccc(N(CC(=O)NCc2ccccc2)C(=O)CCC(=O)Nc2ccccn2)cc1C	8.4
CCOc1cccc(OCCOCCN(C)Cc2ccccc2)c1	-6.68
COc1cccc(O)c1CN1CCC(n2nccc2NC(=O)c2ccc3c(c2)OCO3)CC1	5.08
CC(=O)c1sc2nc(-c3cccs3)cc(C(F)(F)F)c2c1N	11.6
Cl.NC(c1ccccc1)c1ccncc1 (stereo not shown)	15.2
Cc1cn2c(=O)c(C(=O)N3CCN(c4ccccc4F)CC3)cnc2s1	3.8
CCCn1c(C)cc(/C=C(\C#N)C(=O)OCC(=O)Nc2ccc(OC)c(Cl)c2)c1C	5.72
CCCC(=O)Nc1ccc(C(=O)NCCc2ccc(F)cc2)cc1	23
CC(C)NC(=O)/C(=C/c1ccco1)c1ccccc1	3.25
CCCCN1C(=O)C(=O)N(CC(=O)c2ccc3c(c2)OCO3)C1=O	3.01
Cc1nc2scc(C)n2c(=O)c1S(=O)(=O)NCc1ccccc1Cl	14.3
CCc1ccc2c(c1)c(N=NC1=NC(=O)CS1)c(O)n2CC	7.81
CSc1nnc(C(C)c2ncc(C(F)(F)F)cc2Cl)n1C (stereo not shown)	6.41
Cc1c(C(=O)N2CCCC2)c(S(=O)(=O)N2CCN(c3ccccc3F)CC2)c(C)n1C	6.82
O=C1[C@H]2[C@@H](C3CC3)N3C(=O)CN(Cc4ccccn4)C(=O)[C@@]3(Cc3ccccc3)[C@H]2C(=O)N1c1ccccc1	8.26

Structure (SMILES)	hERG current change (%, negative = inhibition) at 1uM [%]
COC(=O)C1=Nc2ccccc2/C1=C\c1c(O)n(C)c(=O)n(C)c1=O	16.1
Cc1onc(-c2ccccc2)c1C(=O)Nc1ccc2c(c1)OCO2	6.81
O=C(CNC(=O)c1ccc(Cl)cc1)Nc1ccc(S(=O)(=O)Nc2ncccn2)cc1	7.99
CN(Cc1cc(=O)n2ccsc2n1)c1ccccc1	4.71
Cc1ccc(-c2cc(C(=O)OCC(=O)Nc3cc(C)on3)c3ccccc3n2)c(C)c1	12.5
Cc1cccn2c(=O)c(/C=C(\C#N)C(=O)NC3CCS(=O)(=O)C3)c(N3CC(C)OC(C)C3)nc12 (stereo not shown)	15.5
CCc1ccc(N2CC(C(=O)Nc3ccc(S(=O)(=O)N4CCOCC4)cc3)CC2=O)cc1 (stereo not shown)	8.69
O=C(NC1CCCCC1)c1cc(-c2ccccc2O)on1	10.8
CCN(CC(=O)N1CCC(C)CC1)S(=O)(=O)c1ccc(C)cc1	-9.4
CCCC(=O)O[C@]1(C(=O)CCl)[C@@H](C)C[C@H]2[C@@H]3CCC4=CC(=O)C=C[C@]4(C)[C@@]3(F)C(=O)C[C@@]21C	1.36
O=C(OCCCN=C1NS(=O)(=O)c2ccccc21)c1ccccc1	8.41
CC(C)CN(C(=O)Cn1c(Cl)nc2c1c(=O)n(C)c(=O)n2C)C1CCS(=O)(=O)C1 (stereo not shown)	-7.41
CCc1nnc(NC(=O)CSc2nc3c(c(=O)n2-c2ccccc2OC)SCC3)s1	12.5
Cc1cccc(OCCn2c(-c3ccco3)nc3ccccc32)c1	28.5
CCCNC(=O)c1cccc(NC(=O)C(C)C)c1	-6.34
NC1=NN=C(N2N=C(c3ccccc3)CC2(O)C(F)(F)F)n2ncnc2C1 (stereo not shown)	10.8
Cc1ccccc1NC(=O)CCc1c(C)nn(-c2ccc(N3CCCCC3)nn2)c1C	0.987
CC1(C)CC(=O)C2=C(C1)OC1=C(C2)C(=O)CC(C)(C)C1	9.08
Clc1ccc(CSc2ncn[nH]2)cc1	0.531
Cc1ccccc1C(=O)c1cccn1CC(=O)NCCCN1CC(C)CC(C)C1 (stereo not shown)	-59
Cc1ccc(-c2nc3ccccc3c(=O)n2CCCn2ccnc2)cc1	-16.2
CCC(NS(=O)(=O)c1ccc(OC)cc1)C(=O)O (stereo not shown)	-4.23

Structure (SMILES)	hERG current change (%, negative = inhibition) at 1uM [%]
CCOC(=O)Cn1c(CCC(=O)O)ccc1-c1ccc(F)cc1	12.6
Cc1ccnc(NC(=O)CS(=O)(=O)Cc2ccccc2)c1	6.54
O=C(CCc1nc2ccccc2c(=O)[nH]1)Nc1nnc(SCc2ccc(Cl)cc2)s1	14.7
O=C(Nc1nc(-c2ccc(Br)cc2)cs1)c1cccnc1	6.29
CCOC(=O)[C@H]1[C@H]2COc3ccccc3[C@@H]2N2C(=O)c3cc(F)ccc3NC(=O)[C@@]12C	5.9
COc1ccc(F)cc1C(=O)C1CCCN(Cc2ccc(Sc3nncn3C)o2)C1 (stereo not shown)	17.4
CNS(=O)(=O)c1ccc(N2CCCC2)c([N+](=O)[O-])c1	9.46
Cc1noc(C)c1COC(=O)c1ccc(F)c(S(=O)(=O)N2CCCCC2)c1	-0.643
O=C1/C(=C/c2ccccn2)SC(=S)N1N1CCOCC1	4.2
Cc1ccc(-c2nc(SCC(=O)Nc3cc(C)on3)c3c(=O)n(C)c(=O)n(C)c3n2)cc1	14.5
O=C1CCC/C1=C/Nc1cccc(F)c1	15
CCOC(=O)CCSc1cc(C)c2ccccc2n1	10.4
CC(=O)N(c1ccccc1)C1CCCC1	8.96
Cc1ccc(C#CC(C)(O)C(C)(C)C)cn1 (stereo not shown)	11.3
CC(C)(C)c1nc(Sc2ccc([N+](=O)[O-])cn2)n[nH]1	14.8
COc1ccc(Cl)cc1-n1c(C)cc(C=O)c1C	3.79
C=C(C)COc1ccc(-c2nc(N)ncc2-c2ccccc2OC)c(O)c1	-0.777
Cc1cc([N+](=O)[O-])ccc1NC(=O)C(C)[n+]1ccccc1.[Br-] (stereo not shown)	18.1
COc1ccc(C(=O)/C=C/Nc2ccc(C)cn2)cc1OC	11.9
CC(=O)N1CCN(c2ccc(NC(=O)c3cccc(OCc4ccccc4)c3)cc2)CC1	10.2
COC(=O)c1cc(CNC(=O)c2ccccc2Cl)ccc1OC	5.03
CCCCOc1ccc(N(CC(=O)NC2CCCCC2)C(=O)c2snc(C(N)=O)c2N)cc1	8.41

Structure (SMILES)	hERG current change (%, negative = inhibition) at 1uM [%]
CC(C)c1ccc(CNCCCSc2ncccn2)cc1.Cl	0.294
O=C(CCOc1ccccc1)N1CCN(S(=O)(=O)c2cccs2)CC1	1.47
CCCCn1c(SCC(=O)N2CCCCC2C)nc2cc(S(N)(=O)=O)ccc21 (stereo not shown)	2.56
O=C(CSc1nccc(=O)[nH]1)Nc1cc(C(F)(F)F)ccc1N1CCOCC1	11.9
Cc1ccc(CNC(=O)c2cc3c(C)nc4ccccc4c3o2)cc1	12.9
CCCCC(=O)Nc1nc2c(s1)COc1ccccc1-2	11
CCOc1ccccc1NC(=O)C1=C(C)NC(=S)NC1c1cccs1 (stereo not shown)	6.54
CCN(CC(=O)Nc1ccc(S(=O)(=O)N2CCCC2)cc1)Cc1ccccc1	10.9
Cc1nnc(NC2=NCCC2)s1	9.99
Cc1onc(-c2ccccc2Cl)c1C(=O)Nc1cccc(-c2cn3cccnc3n2)c1	0.225
Cc1ccc(C)c(NC(=O)COC(=O)Cn2c(C)csc2=O)c1	18.5
COc1cccc(NC(=S)NCc2ccncc2)c1	4.92
O=C(NC1CCCCC1)NC1CC2CCC(C1)N2Cc1nnnn1Cc1ccc2c(c1)OCO2 (stereo not shown)	-1.53
COc1ccccc1NS(=O)(=O)c1ccc2oc(SC(C)C(=O)N3CCNC3=O)nc2c1 (stereo not shown)	0.24
CCOc1ccc(C(=O)Nc2cccc(C(=O)O)c2C)cc1Cl	20.3
Cc1nnc(SCC(=O)NCC2CCCCC2)n(N)c1=O	9.69
Cc1[nH]c2ccccc2c1C(=O)CSc1ccc(F)cc1	12.9
c1ccc(CCn2nnnc2C(c2cccnc2)N2CCN(c3ccccc3)CC2)cc1 (stereo not shown)	-17.8
COc1cc(NC(=O)c2ccccc2)c(OC)cc1NC(=O)CN1C(=O)NC2(CCCCC2)C1=O	6.21
COc1ccc(Cl)cc1NC(=O)CN(C1CCCCC1)S(C)(=O)=O	-7.42
O=C(CN(C(=O)CNC(=O)c1cccs1)c1ccccc1)NC1CCCCC1	18.3
O=C(N/N=C/c1c(O)n(Cc2ccccc2)c(=O)[nH]c1=O)c1ccccc1	15.2
